Experimental data from patent publication US20250043004A1 (Janssen / Centocor, published 2025).

Legend:
CD28 [1] = target: T1, CD28 (human, UniProt P10747 19-220); assay: flow cytometry, human pan T cells
T1 construct: whole, on cells; On human pan T cells and on H929 myeloma cells; the assay field says which; also called Cluster of Differentiation 28

CD28 [2] = target: T1, CD28; assay: flow cytometry, H929 cells (BCMA+, CD28+); whole-cell EC50, antibody has BCMA and CD28 arms
BCMA = target: T2, BCMA (human, UniProt Q02223 1-184); assay: as above
T2 construct: whole, on cells; On NCI-H929 myeloma cells, which also carry CD28; also called B-cell maturation antigen; TNFRSF17
T2 sequence (looked up): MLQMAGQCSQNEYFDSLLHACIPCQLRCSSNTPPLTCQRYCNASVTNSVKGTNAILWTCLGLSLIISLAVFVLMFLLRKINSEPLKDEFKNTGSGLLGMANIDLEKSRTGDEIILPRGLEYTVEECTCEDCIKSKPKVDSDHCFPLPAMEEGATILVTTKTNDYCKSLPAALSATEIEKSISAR

Measured: EC50

B1: VB28B4 (other)
heavy 1: QVQLQQWGAGLLKPSETLSLTCAVYGGSFSGYYWNWIRQPPGKGLQWIGEINHSGTTNYNPSLKSRVTISVDTSKNQFSLKLSSLTAADTAVYYCARGEAVALYWGQGTLVTVSSASTKGPSVFPLAPSSKSTSGGTAALGCLVKDYFPEPVTVSWNSGALTSGVHTFPAVLQSSGLYSLSSVVTVPSSSLGTQTYICNVNHKPSNTKVDKKVEPKSCDKTHTCPPCPAPEAAGGPSVFLFPPKPKDTLMISRTPEVTCVVVSVSHEDPEVKFNWYVDGVEVHNAKTKPREEQYNSTYRVVSVLTVLHQDWLNGKEYKCKVSNKALPAPIEKTISKAKGQPREPQVYTLPPSREEMTKNQVSLWCLVKGFYPSDIAVEWESNGQPENNYKTTPPVLDSDGSFFLYSKLTVDKSRWQQGNVFSCSVMHEALHNHYTQKSLSLSPGGGSEGKSSGSGSESKSTGGSDIQMTQSPSSLSASVGDRVTITCRSSQSLVHSSGNTYLHWYQQKPGKAPKFLIYKVSNRFSGVPSRFSGSGSGTDFTLTISSLQPEDFATYYCSQSTHVPFTFGQGTKLEIKGGSEGKSSGSGSESKSTGGSQVQLQESGPGLVKPSETLSLTCTVSGYSITSGYFWNWIRQPPGKGLEWIGYISYDGSNNYNPSLKSRVTISRDTSKNQFSLKLSSVTAADTAVYYCASPSPGTGYAVDYWGQGTLVTVSS
light 1: EIVMTQSPATLSVSPGERATLSCRASQSVNSNLAWYQQKPGQAPRLLIYGASARATGIPARFSGSGSGTEFTLTISSLQSEDFAVYYCQQYYNWPLTFGGGTKVEIKRTVAAPSVFIFPPSDEQLKSGTASVVCLLNNFYPREAKVQWKVDNALQSGNSQESVTEQDSKDSTYSLSSTLTLSKADYEKHKVYACEVTHQGLSSPVTKSFNRGEC
heavy 2: QVQLQQWGAGLLKPSETLSLTCAVYGGSFSGYYWNWIRQPPGKGLQWIGEINHSGTTNYNPSLKSRVTISVDTSKNQFSLKLSSLTAADTAVYYCARGEAVALYWGQGTLVTVSSASTKGPSVFPLAPSSKSTSGGTAALGCLVKDYFPEPVTVSWNSGALTSGVHTFPAVLQSSGLYSLSSVVTVPSSSLGTQTYICNVNHKPSNTKVDKKVEPKSCDKTHTCPPCPAPEAAGGPSVFLFPPKPKDTLMISRTPEVTCVVVSVSHEDPEVKFNWYVDGVEVHNAKTKPREEQYNSTYRVVSVLTVLHQDWLNGKEYKCKVSNKALPAPIEKTISKAKGQPREPQVYTLPPSREEMTKNQVSLSCAVKGFYPSDIAVEWESNGQPENNYKTTPPVLDSDGSFFLVSKLTVDKSRWQQGNVFSCSVMHEALHNRFTQKSLSLSPGGGSEGKSSGSGSESKSTGGSEIVLTQSPGTLSLSPGERATLSCRASQSISSSFLTWYQQKPGQAPRLLIYGASSRATGIPDRFSGGGSGTDFTLTISRLEPEDFAVYYCQHYGSSPMYTFGQGTKLEIKGGSEGKSSGSGSESKSTGGS[about 100 residues not spelt out]DEGYSSGHYYGMDVWGQGTTVTVSS
light 2: EIVMTQSPATLSVSPGERATLSCRASQSVNSNLAWYQQKPGQAPRLLIYGASARATGIPARFSGSGSGTEFTLTISSLQSEDFAVYYCQQYYNWPLTFGGGTKVEIKRTVAAPSVFIFPPSDEQLKSGTASVVCLLNNFYPREAKVQWKVDNALQSGNSQESVTEQDSKDSTYSLSSTLTLSKADYEKHKVYACEVTHQGLSSPVTKSFNRGEC
notes: only variable domains are tied; also called Vβ28B4
0.06 µg/mL: all assays above
